From a collection of fitness landscapes (doi:10.1016/j.celrep.2020.107928)
Over roughly 81,000 sequences, “one-hybrid fitness for binding parS DNA” has its median near -0.17; the highest 2% begin near 0.51. The list shows a part of the results.

B1: Caulobacter ParB omega fusion; a variant is named by its letters at X, in order, B8GW30 (parent)
chain: MESVVVGEPGMSEGRRGLGRGLSALLGEVDAAPAQAPGEQLGGSREAPIEILQRNPDQPRRTFREEDLEDLSNSIREKGVLQPILVRPSPDTAGEYQIVAGERAWRAAQRAGLKTVPIMVRELDDLAVLEIGIIENVQRADLNVLEEALSYKVLMEKFERTQENIAQTIGKSXSHVANXMRLLXLPDEVQSYLVSGELTAXHARAIAAAADPVALAKQIIEGGLSVRETEALARKAPNLSAGKSKGGRPPRVKDTDTQALESDLSSVLGLDVSIDHRGSTGTLTITYATLEQLDDLCNRLTRGI

Variants of: B1
Assay: one-hybrid fitness for binding parS DNA (scaled: cognate 1, non-cognate 0); higher = stronger binding
Conditions: with parS DNA site
Method in brief: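 In E. coli USO, a HIS3 reporter with its site placed 19 bp from the promoter was used to select Caulobacter ParB variants randomised at four specificity codons. Growth lasted 48 hours at 37°C on histidine-free M9 containing 0.1 mM IPTG and 5 mM 3-AT. Fitness was taken as the log change in variant-to-wild-type read ratio from Illumina sequencing of pre- and post-selection plasmids, rescaled between the non-cognate and cognate sites.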

Variant | one-hybrid fitness for binding parS DNA
TYKN | ≤ 0.2
VVPF | ≤ 0.2
LSRD | ≤ 0.2
CLKT | ≤ 0.2
TRGI | ≤ 0.2
FTMC | ≤ 0.2
NPHT | ≤ 0.2
YSCC | ≤ 0.2
MYTD | ≤ 0.2
SLDC | ≤ 0.2
ISAE | ≤ 0.2
ILKM | ≤ 0.2
VWKM | ≤ 0.2
CCTW | ≤ 0.2
DARV | ≤ 0.2
KHEE | ≤ 0.2
ETLM | ≤ 0.2
NARR | ≤ 0.2
CLKG | ≤ 0.2
KIKM | ≤ 0.2
SVCR | ≤ 0.2
ITAC | ≤ 0.2
NRMM | ≤ 0.2
LRHM | ≤ 0.2
AVWI | ≤ 0.2
QRKT | ≤ 0.2

Variant | one-hybrid fitness for binding parS DNA
KSPF | ≤ 0.2
VGCS | ≤ 0.2
CTGD | ≤ 0.2
CWST | ≤ 0.2
RPAY | ≤ 0.2
KLQM | ≤ 0.2
ALKH | ≤ 0.2
RANI | ≤ 0.2
QANE | ≤ 0.2
QRAN | ≤ 0.2
QAFS | ≤ 0.2
TDAT | ≤ 0.2
KCYW | ≤ 0.2
SYSW | ≤ 0.2
IPNG | ≤ 0.2
QPSP | ≤ 0.2
HPSP | ≤ 0.2
SVYI | ≤ 0.2
YNAC | ≤ 0.2
VWNE | ≤ 0.2
ASAQ | ≤ 0.2
YENF | ≤ 0.2
WFSR | ≤ 0.2
HLAN | ≤ 0.2
TQDS | ≤ 0.2
LFYE | ≤ 0.2

Variant | one-hybrid fitness for binding parS DNA
GWIR | ≤ 0.2
IIPP | ≤ 0.2
EVPF | ≤ 0.2
ETRS | ≤ 0.2
INMM | ≤ 0.2
FIMF | ≤ 0.2
SHYV | ≤ 0.2
DQRH | ≤ 0.2
TIDE | ≤ 0.2
TATC | ≤ 0.2
SADV | ≤ 0.2
RPLG | ≤ 0.2
QFEG | ≤ 0.2
SMAW | ≤ 0.2
FPWS | ≤ 0.2
ALVV | ≤ 0.2
RERQ | ≤ 0.2
SNLW | ≤ 0.2
PCYR | ≤ 0.2
AAAV | ≤ 0.2
EMYR | ≤ 0.2
QVDS | ≤ 0.2
QGAT | ≤ 0.2
YRPT | ≤ 0.2
EDQC | ≤ 0.2
PWRP | ≤ 0.2

Variant | one-hybrid fitness for binding parS DNA
MCFS | ≤ 0.2
LFHT | ≤ 0.2
APQT | ≤ 0.2
DPSL | ≤ 0.2
NLFK | ≤ 0.2
TPKR | ≤ 0.2
EIES | ≤ 0.2
DELH | ≤ 0.2
VHKT | ≤ 0.2
TCRW | ≤ 0.2
WFIS | ≤ 0.2
HLDN | ≤ 0.2
MPES | ≤ 0.2
HHWR | ≤ 0.2
WSTG | ≤ 0.2
QWTL | ≤ 0.2
KNKC | ≤ 0.2
AYMV | ≤ 0.2
EDQL | ≤ 0.2
ENAF | ≤ 0.2
HMHC | ≤ 0.2
RTWL | ≤ 0.2
RRRC | 0.634
RNIG | 0.597
TTPA | ≤ 0.2
LGRF | ≤ 0.2

Variant | one-hybrid fitness for binding parS DNA
QSKI | ≤ 0.2
CGKG | ≤ 0.2
HAYS | ≤ 0.2
DWPR | ≤ 0.2
NAVE | ≤ 0.2
QVYW | ≤ 0.2
NQKR | ≤ 0.2
YWAS | ≤ 0.2
AIFG | ≤ 0.2
ETTV | ≤ 0.2
LYWL | ≤ 0.2
GRGC | ≤ 0.2
KLHT | ≤ 0.2
WMRT | ≤ 0.2
TSQY | ≤ 0.2
MENG | ≤ 0.2
DIER | ≤ 0.2
NNYY | ≤ 0.2
HSVR | ≤ 0.2
DAAD | ≤ 0.2
PGGS | ≤ 0.2
RLQL | ≤ 0.2
NLQY | ≤ 0.2
WYDC | ≤ 0.2
TERI | ≤ 0.2
QKVH | ≤ 0.2

Variant | one-hybrid fitness for binding parS DNA
ANTD | ≤ 0.2
CSPS | ≤ 0.2
IISW | ≤ 0.2
LPAE | ≤ 0.2
GTER | ≤ 0.2
KIPI | ≤ 0.2
AIME | ≤ 0.2
DHPC | ≤ 0.2
RNKV | ≤ 0.2
ILPA | ≤ 0.2
ELSK | ≤ 0.2
WNAG | ≤ 0.2
CQKT | ≤ 0.2
TCYD | ≤ 0.2
PILW | ≤ 0.2
PQSY | ≤ 0.2
CSPI | ≤ 0.2
PASD | ≤ 0.2
NDDC | ≤ 0.2
CHKL | ≤ 0.2
PVTQ | ≤ 0.2
DWPT | ≤ 0.2
VPHG | ≤ 0.2
